According to PubChem BioAssay AID596 (National Center for Advancing Translational Sciences (NCATS), 2007):
Hit rate of the full screen: of about 71,000 compounds, about 1,400 (2%) were called active. Inconclusive results, whose numbers are uncertain, are shown with a selection of clear calls. The call rests on the fitted dose curve; in most records, active means well fitted curve in the direction sought with a large enough effect; inconclusive means small, poorly fitted or top-dose-only effect; inactive means no such curve, though single readings can be large or run the other way. Potencies beside an inconclusive call are fits to weak or partial responses and may not hold up.

Target: Microtubule-associated protein tau (Homo sapiens) (UniProt P10636)
Experiment: qHTS Assay for Tau Filament Binding;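 further: actives lower thioflavin S fluorescence by blocking filaments or displacing dye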
Settings: recombinant tau filaments, thioflavin S fluorescence, 15 h, filaments grown with octadecylsulfate alongside compound; series mostly up to 57.1 µM
Outline: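 ThS-based fibril read: tau 1 uM final, inducer ODS 30 uM final, 37 C for 15 h, ex 450/em 510 nm.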
On the % scale 0 is the no-effect control and ±100 the full control effect; potency means the concentration at half of the fitted maximal effect.

UniProt P10636, sequence (P10636 whole entry, looked up): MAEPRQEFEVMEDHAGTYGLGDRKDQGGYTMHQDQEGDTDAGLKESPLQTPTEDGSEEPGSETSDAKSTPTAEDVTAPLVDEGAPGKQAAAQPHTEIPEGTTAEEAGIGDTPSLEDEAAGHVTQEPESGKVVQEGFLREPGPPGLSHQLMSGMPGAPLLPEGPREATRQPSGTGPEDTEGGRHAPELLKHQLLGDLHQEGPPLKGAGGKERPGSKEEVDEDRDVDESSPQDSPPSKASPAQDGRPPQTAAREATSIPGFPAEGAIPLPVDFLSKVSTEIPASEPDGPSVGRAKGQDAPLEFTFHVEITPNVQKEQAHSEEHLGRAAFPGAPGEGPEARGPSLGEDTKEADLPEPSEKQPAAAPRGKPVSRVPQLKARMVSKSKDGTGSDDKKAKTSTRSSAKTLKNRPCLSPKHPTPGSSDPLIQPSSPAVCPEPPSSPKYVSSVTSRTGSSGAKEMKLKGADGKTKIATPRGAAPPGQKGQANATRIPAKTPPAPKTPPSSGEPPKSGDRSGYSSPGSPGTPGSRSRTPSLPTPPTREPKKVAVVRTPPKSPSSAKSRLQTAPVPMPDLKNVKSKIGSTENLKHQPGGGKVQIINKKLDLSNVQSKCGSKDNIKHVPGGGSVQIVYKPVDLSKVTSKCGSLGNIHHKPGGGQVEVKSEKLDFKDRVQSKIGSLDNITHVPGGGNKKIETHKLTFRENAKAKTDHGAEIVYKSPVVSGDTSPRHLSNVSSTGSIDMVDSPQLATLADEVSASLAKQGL

SMILES	Potency	activity change, negative = inhibition
Cc1cc(C)n2nc(SCc3cc(=O)n4c(C)cccc4n3)nc2n1	inactive	–
O=c1cnc2cnc(Nc3ccccc3)nc2n1Cc1ccc(F)cc1	inconclusive: 15.8 µM [decreasing]	–
CSc1ncnc2c1ncn2CC(=O)[C@H]1CC[C@H]2[C@H]3CCC4=CC(=O)CC[C@@]4(C)[C@@H]3CC[C@@]12C	–	inactive: 63.6% [at 11.4 µM]
CCOC(=O)c1c(OCC)[nH]c2c1cc(O)c1ccccc12	inactive	–
Cc1ccc(S(=O)(=O)NC(=O)Nn2c(C)nnc2C)cc1	inactive	–
Cc1ccc(NC(=O)c2cccc(N(C)C)c2)cc1NC(=O)c1ccc(O)cc1	inconclusive: 39.8 µM [decreasing]	–
Cc1ccc2nc(N3CCN(Cc4nnnn4Cc4ccccc4)CC3)c(C#N)cc2c1	inconclusive: 25.1 µM [decreasing]	–
O=C(c1cnn2c(C(F)(F)F)cc(-c3ccccc3)nc12)N1CCOCC1	inactive	–
Cc1ccnc(N)c1	inconclusive: 39.8 µM [decreasing]	–
COCCN(C(=O)Cn1nnc2ccccc21)C(C(=O)NC1CCCC1)c1cccc(OC)c1OC (stereo not drawn)	inactive	–
CCc1ccc2c(-c3cccc(Cl)c3)nc(=O)n(CC)c2n1	active: 31.6 µM	–
O=C(Nc1nncs1)c1ccc(S(=O)(=O)c2ccccc2)cc1	inconclusive: 31.6 µM [decreasing]	–
O=C(c1cc(-c2ccco2)nn1-c1cccc(Cl)c1)N1CCCCC1	inconclusive: 31.6 µM [decreasing]	–
c1csc(CNc2nc(-c3ccoc3)nc3ccccc23)c1	active: 25.1 µM	–
c1coc(-c2nc(-c3ccco3)c(-c3ccco3)nc2-c2ccco2)c1	inconclusive: 2.51 µM [decreasing]	–
Cc1cc(N2CCN(C(=O)c3ccco3)CC2)n2nc(C)c(-c3ccc(Cl)cc3)c2n1	inactive	–
CCOC(=O)n1ccn(C)c1=S	inactive	–
CCOc1ccc(CCNc2cc(C)nc3ncnn23)cc1OCC	inactive	–
Brc1ccc2[nH]c3nc(SCCN4CCOCC4)nnc3c2c1	active: 12.6 µM	–
COc1ccccc1-n1c(SCC(=O)Nc2ccc3c(c2)OCO3)nc2c(c1=O)SCC2	inconclusive: 25.1 µM [decreasing]	–
CC(=O)n1nc(-c2ccco2)nc1SCc1ccccc1	active: 25.1 µM	–
Cc1ccc(-n2nc(C)c3c2OC(N)=C(C#N)C3c2ccoc2)cc1 (stereo not drawn)	active: 31.6 µM	–
COc1cc(C(Nc2ccccn2)c2ccc3ccc(C)nc3c2O)cc(OC)c1O (stereo not drawn)	active: 12.6 µM	–
COC(=O)c1ccccc1NC(=O)c1ccc(F)cc1	inconclusive: 39.8 µM [decreasing]	–
COc1ccc(N2CCN(C(=O)c3ccc(C)c(Cl)c3)CC2)cc1	inconclusive: 20 µM [decreasing]	–
CS(=O)(=O)c1ccc(-c2cc(Br)sc2-c2ccc(F)cc2)cc1	inconclusive: 39.8 µM [decreasing]	–
CCN(CC)CC(=O)c1ccc(-c2ccccc2)cc1	inconclusive: 31.6 µM [decreasing]	–

SMILES	Potency	activity change, negative = inhibition
N[C@H](C(=O)O)c1ccc(C(=O)O)cc1	inconclusive: 39.8 µM [decreasing]	–
Cc1ccc(OCc2nnc(SCc3nc4ccccc4[nH]3)n2Cc2ccco2)cc1	inactive	–
CCOC(=O)N1CCC(N2C(=O)c3ccccc3C2Nc2ccc3c(c2)OCCO3)CC1 (stereo not drawn)	inconclusive: 31.6 µM [decreasing]	–
CC(C)c1cc(Nc2cccc(O)c2)cc(C(C)C)c1O	active: 7.94 µM	–
CCOc1ccc(OCC)c(NC(=O)C2C3C=CC(O3)C2C(=O)NCc2ccco2)c1 (stereo not drawn)	inconclusive: 25.1 µM [decreasing]	–
COc1ccc2c(c1)c(C(=O)CNc1nc(C)cs1)c(C)n2C	inconclusive: 39.8 µM [decreasing]	–
Clc1ccc(-c2nc3nc4ccccc4nc3n2Cc2ccco2)cc1	inconclusive: 2.51 µM [decreasing]	–
CCCCn1c(CN(C)Cc2ccccc2)nc2c1c(=O)n(C)c(=O)n2C	inactive	–
COc1ccccc1N1CCN(C/C=C/c2ccc(N(C)C)cc2)CC1	inconclusive: 6.31 µM [decreasing]	–
COc1ccccc1NC(=O)CC1Nc2ccccc2NC1=O (stereo not drawn)	inconclusive: 7.94 µM [decreasing]	–
Cc1nn(CC(=O)Nc2ccc(C(=O)N3CCCCC3)cc2)c(=O)c2ccccc12	inactive	–
CC1(C(=O)Nc2nccs2)Cc2ccccc2C(=O)O1 (stereo not drawn)	active: 12.6 µM	–
C[N@@+]1(Cc2ccc(Cl)c(Cl)c2)CCC[C@@H]1c1ccc[n+](Cc2ccc(Cl)c(Cl)c2)c1	inconclusive: 3.16 µM [decreasing]	–
Cc1ccc(OCCCC(=O)Nc2ccc(N3CCOCC3)cc2)c(C)c1	inconclusive: 10 µM [decreasing]	–
O=C1c2oc3ccccc3c(=O)c2C(c2cccc(O)c2)N1c1ccccn1 (stereo not drawn)	inconclusive: 31.6 µM [decreasing]	–
CC(=O)N1CCN(c2ccc(NCc3ccccc3)cc2)CC1	active: 15.8 µM	–
CCOc1ccccc1NC(=O)C1CCCN(S(=O)(=O)c2cccc3nsnc23)C1 (stereo not drawn)	inconclusive: 25.1 µM [decreasing]	–
COc1ccc2[nH]c(-c3ccccc3)c(CCNC(C)=O)c2c1	inconclusive: 39.8 µM [decreasing]	–
COc1ccc2c(c1OC)C(=O)OC2[C@H]1c2c(cc3c(c2OC)OCO3)CCN1C (stereo partly drawn)	inconclusive: 39.8 µM [decreasing]	–
COc1ccc(C2c3c(oc4ccc(C)cc4c3=O)C(=O)N2c2cc(C)ccn2)cc1OC (stereo not drawn)	inconclusive: 2 µM [decreasing]	–
CC(=O)NC(CC(C)C)C(=O)NC(Cc1ccccc1)C(N)=O (stereo not drawn)	inactive	–
Cc1cc(/C=C\c2ccc3cc(N(C)C)ccc3[n+]2C)c(C)n1-c1ccccc1	active: 3.16 µM	–
O=C(Nc1cccs1)Nc1ccccc1Cl	active: 25.1 µM	–
COc1ccc2nc(-n3c(C)ccc3C)sc2c1	inconclusive: 25.1 µM [decreasing]	–
COCc1nc2c([nH]1)c(=O)n(C)c(=O)n2CC(C)C	inconclusive: 39.8 µM [decreasing]	–
O=C1C(c2[nH]c3ccccc3c2O)=Nc2ccccc21	inactive	–
